The values below come from PubChem BioAssay (NCI).

Molecules are shown by their SMILES. Several values for one entry are separate records, joined by “and”; a condition that tells them apart may be missing. Identical values can stand only once.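 Compound exposure: 48 hours, 5 concentrations, 96-well plates. The concentration for 50% growth inhibition is given as GI50. TGI is the concentration that stops growth completely.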 Peptide text beside a SMILES is read from it.

This assay has as its system NCI-H322M lung. Description: NCI anticancer screen, dose series, 48 h.

Compound `COC1=CC(=O)N(C(=O)[C@@H](OC(=O)[C@@H]2CCCN2C(=O)[C@@H]2CCCN2C(=O)[C@H](CC(C)C)N(C)C(=O)[C@@H](NC(=O)[C@@H](NC(=O)OCc2ccccc2)C(C)C)C(C)C)C(C)C)[C@H]1Cc1ccccc1` (HELM PEPTIDE1{[O=C(OCc1ccccc1)[*:2]].V.V.[meL].P.P.[COC1=CC(=O)N(C(=O)[C@@H](O[*:1])C(C)C)[C@H]1Cc1ccccc1]}$$$$V2.0) gave a TGI greater than 100 µM.
`OC(C1CCCC1=N/N=C1/CCCC1C(O)(C(F)(F)Cl)C(F)(F)Cl)(C(F)(F)Cl)C(F)(F)Cl` (stereo not drawn): the TGI was greater than 10 µM.
Still for that read-out and setting: the value for `CCCCCC/C=C\CCCCCCCCCc1c(O)c(OC)cc(O)c1CN(C)C` was 30.3 µM; that for `O=C(O)C1Cc2ccccc2OC1=O` (stereo not drawn) was greater than 100 µM.
For the compound `COc1cc(/C=N/O)nc(-c2ccccn2)c1`, the GI50 is 0.292 µM and the TGI was greater than 100 µM.
`C[n+]1ccc2[nH]c3ccccc3c2c1` returned a TGI greater than 100 µM.
Same read-out and setting: with `Cc1cccc2cc3ccc4ccccc4c3cc12` the figure was greater than 100 µM; with `COc1ccc(CC(C#N)c2cc(OC)c(OC)c(OC)c2)cc1` (stereo not drawn), greater than 100 µM.
Same read-out and setting: with `CS(=O)(=O)OC1CCN(C2(c3cccc(O)c3)CCCCC2)CC1` the figure was greater than 100 µM; with `O=C(O)C1(CC(CCCN2CCCCC2)c2ccccc2)CCCC1` (stereo not drawn), greater than 100 µM.
Regarding `Cc1ccc2oc(=O)cc(C3c4ccc([nH]4)C(c4cc(=O)oc5ccc(C)cc45)c4ccc([nH]4)C(c4cc(=O)oc5ccc(C)cc45)c4ccc([nH]4)C(c4cc(=O)oc5ccc(C)cc45)c4ccc3[nH]4)c2c1` (stereo not drawn), the GI50 was 0.0451 µM and the TGI is 3.36 µM.
In the case of `CC[C@@]1(O)C(=O)OCc2c1cc1n(c2=O)Cc2c-1nc1ccccc1c2/C=N\NC(=O)C(N)=O`, the TGI is greater than 89.8 µM.
Still for that read-out and setting: with `COc1cc(C(=O)OC2CC(C)=CC[C@@]3(C)CC[C@](O)(C(C)C)C23)ccc1O` (stereo partly drawn) the figure was 29.1 µM.
In the case of `C=CC1=C(C)C(Cc2[nH]c(/C=c3\[nH]/c(=C/C4=NC(=O)C(C)/C4=C\C)c(C)c3CCC(=O)O)c(CCC(=O)OC)c2C)NC1=O` (stereo not drawn), the GI50 is 40.5 µM and the TGI is 89 µM.
Turning to `CN(c1ccccc1Cl)S(=O)(=O)c1ccccc1`, the TGI was greater than 100 µM.
Still for that read-out and setting: the value for `O=C1c2c(O)cccc2C(C(=O)CCCC(=O)C2c3cccc(O)c3C(=O)c3c(O)cccc32)c2cccc(O)c21` was 5.99 µM; that for `O=C(Cc1nc2ccccc2s1)C(=O)Nc1ccc(Cl)cc1Cl` was greater than 100 µM.
Same read-out and setting: with `COc1cc(OC)c(NC2=NCCO2)cc1Cl` the figure was greater than 100 µM; with `C=C(C)C1CCC2(CO)C(O)CC3(C)C(CCC4C5(C)CCC(O)C(C)(C)C5CCC43C)C12` (stereo not drawn), 30.7 µM; with `CCOC(=O)C1CCn2c(nc3c(=O)n(C)c(=O)n(C)c32)S1` (stereo not drawn), greater than 100 µM.
Turning to `C=C1C(=O)O[C@H]2[C@H]1CC/C(COC(=O)NCc1cccc(OC)c1)=C\CC[C@@]1(C)O[C@@H]21`, the GI50 was 12 µM and the TGI turned out to be 24.4 µM.
For the compound `O=C(O)C1C2CCC(C2)C1c1ccccc1` (stereo not drawn), the TGI was greater than 100 µM.
Same read-out and setting: with `CC(=O)OC1C/C(C)=C/[C@H](O)CC(C)/C=C/[C@@]2(C)CCC(C(C)(C)O)C12` (stereo partly drawn) the figure was greater than 100 µM; with `Cc1cc(O)c(/C=N/C(=O)NN)c(=O)o1`, greater than 100 µM.
Take `O=C1/C(=C/c2ccc(C(F)(F)F)cc2)COc2ccc(O)cc21`: the GI50 is 12.5 µM and the TGI amounted to 25 µM.
In turn, `Cc1cccc(NC(=O)Cc2nc3ccccc3s2)c1C` registered a TGI greater than 100 µM.
Turning to `CCC(C)N1CN(c2ccccc2)C2(CCN(CCCC(=O)c3ccc(F)cc3)CC2)C1=O` (stereo not drawn), the TGI turned out to be 18 µM.
On to `CNc1nc(=O)c(C#N)c(-c2ccc(C)cc2)s1`, for which the TGI is greater than 100 µM.
Regarding `c1cc(-c2cnn3nc(N4CCOCC4)ccc23)nc(NC2CC2)n1`, the GI50 is 10.7 µM and the TGI is greater than 25 µM.
Turning to `O=C1C(Nc2cccc(O)c2)=C(Sc2ccc(Cl)cc2)C(=O)N1Cc1ccccc1`, the GI50 is 18.8 µM and the TGI worked out at 34.6 µM.
On to `CCCCc1oc2ccccc2c1C(=O)c1cc(I)c(OCCN(CC)CC)c(I)c1`, for which the GI50 is 3.96 µM; the TGI is 15 µM and 10.1 µM.
As for `CC(=O)O[C@@H]1CC2[C@@H](CCC3Cc4nc5c(nc4C[C@@]32C)CC2CC[C@@H]3C(CC[C@@]4(C)C3CC[C@@H]4C(C)CCCC(C)C)[C@@]2(C)C5)C2C[C@@H]3OC4(CCC(C)CO4)C(C)[C@@H]3[C@]21C` (stereo partly drawn), the TGI is greater than 100 µM.
Consider `CCOC(=S)SC/C(=N\OC(C)(C)OC)c1ccccc1`, for which the TGI was greater than 100 µM.
Still for that read-out and setting: with `N#CCCCCC12C3C(=O)N(c4ccccc4)C(=O)C3ON1O[C@@H]1C(=O)N(c3ccccc3)C(=O)[C@@H]12` (stereo partly drawn) the figure was greater than 100 µM.
For `CN1CCN(c2ccc([N+](=O)[O-])c3no[n+]([O-])c23)CC1`, the GI50 was 0.685 µM; the TGI is 4.4 µM and 1.98 µM.
In the case of `NC(=O)N/N=C1/CCCC/C1=C\c1ccccc1`, the TGI was greater than 100 µM.
For `Cc1cc(S(=O)(=O)Nc2nc3ccsc3c(=O)n2Cc2ccccc2)c(S)cc1Cl`, the GI50 is 19.5 µM and the TGI was found to be 78.8 µM.
As to `Clc1ccc2c(NCCN3CCN(c4ccnc(N5CCCC5)n4)CC3)ccnc2c1`, the GI50 was 2.9 µM and the TGI was 11.8 µM.
Consider `Cc1cc(NS(=O)(=O)c2ccc(NC(=O)c3cccc4c(NNc5ccc(S(N)(=O)=O)cc5)c5ccccc5nc34)cc2)no1`, for which the TGI is greater than 100 µM.
On the same count and under the same terms, with `CN(Cc1ccccc1)c1nc(=[N+](C)C)ss1` the figure was greater than 100 µM.
For the compound `O=C(Nc1ccc([N+](=O)[O-])cc1)c1cc2ccccc2cc1O`, the GI50 is 0.312 µM and the TGI came out at 6.53 µM.
`CCOC(=O)/C(=C\NC#N)c1nc2ccccc2[nH]1` came in with a TGI greater than 100 µM.
The same measure, in the same setting: the value for `O=C(O)C1=C(Cl)c2ccccc2S1(=O)=O` was greater than 100 µM; that for `O=C(Nc1cc([N+](=O)[O-])cc([N+](=O)[O-])c1)OC1C2CCC1C1OC1C2` (stereo not drawn) was greater than 50 µM.
With `C/C(CC(=O)Nc1ccc(NC(=O)/C(C)=N/NS(=O)(=O)c2ccc(C)cc2)cc1)=N\NS(=O)(=O)c1ccc(C)cc1`, the TGI is greater than 100 µM.
As to `C[C@@H]1CCC2[C@@H](C)[C@H](OC(=O)CCC(=O)NCCNC(=O)Cc3cc(=O)oc4cc(N(C)C)ccc34)O[C@@H]3O[C@]4(C)CC[C@@H]1C23OO4` (stereo partly drawn), the GI50 was 25.6 µM and the TGI is greater than 100 µM.
`COc1ccc(-c2c(C(C)=O)c(-c3ccccc3)n(C3OC(COC(C)=O)C(OC(C)=O)C(OC(C)=O)C3OC(C)=O)c(=S)c2C#N)cc1O` (stereo not drawn) displayed a TGI greater than 100 µM.
In turn, `CC(C(O)c1ccccc1)[N+](=O)[O-]` (stereo not drawn) registered a TGI greater than 100 µM.
Still for that read-out and setting: with `COc1ccc(NCc2c(O)ccc3ccccc23)cc1` the figure was greater than 100 µM; with `COC(=O)Nc1nc2ccc(NS(=O)(=O)c3ccc(F)cc3)cc2[nH]1`, greater than 100 µM.
On to `COC(=O)C(C(=O)C(=O)Nc1ccc(C)cc1C)c1nc2ccc([N+](=O)[O-])cc2[nH]c1=O` (stereo not drawn), for which the TGI is greater than 100 µM.
As for `O=C(Nc1ccccc1)OCc1nc2c([nH]1)C(=O)C=CC2=O`, the TGI came to 26.7 µM.
Take `COc1ccc(CCN2CCOCC2)cc1`: the TGI was greater than 100 µM.
In the case of `O=C(O)[C@H]1NC[C@@H]2ON=C(Br)[C@@H]21`, the TGI was greater than 100 µM.
`O=C(NN1C(=O)C(Cl)C1c1ccc([N+](=O)[O-])cc1)c1ccccc1O` (stereo not drawn) returned a TGI greater than 100 µM.
Turning to `NCCCn1c2c(c3ccc([N+](=O)[O-])cc3c1=O)C(=O)c1cc(Cl)ccc1-2`, the GI50 is less than 0.0233 µM and the TGI turned out to be 0.373 µM.
Regarding `CC1(C)N=C(/C(C#N)=[N+](/[O-])C(=O)c2ccccc2)C(C)(C)N1O`, the TGI was greater than 100 µM.
Still for that read-out and setting: with `S=C1NC2=C(COC/C2=C\c2ccccc2Cl)C(c2ccccc2Cl)N1` (stereo not drawn) the figure was greater than 100 µM; with `COc1cc(C(c2cc(OC)c(OC)c(OC)c2)N2C(=O)CCC2C(=O)O)cc(OC)c1OC` (stereo not drawn), greater than 100 µM.
`CC(=O)O[C@H]1CC[C@H]2[C@@H]3CC[C@H]4Nc5c(cnn5S(C)(=O)=O)C[C@]4(C)[C@H]3CC[C@]12C` had a TGI greater than 100 µM.
`CC(Nc1cc(=O)n(C)c(=O)[nH]1)c1ccccc1` (stereo not drawn) registered a TGI greater than 100 µM.
In turn, `Nc1nc(SCc2ccccc2[N+](=O)[O-])c2[nH]cnc2n1` returned a TGI greater than 100 µM.
For the compound `CC(=O)[CH-]C(=O)c1ccccc1.CC(=O)[CH-]C(=O)c1ccccc1.CC12CC3(C)CC(C)(C1)CC([O-])(C2)C3.CC[O-].[Ti+4]`, the GI50 was 30.5 µM and the TGI is greater than 100 µM.
In turn, `Nc1ccc(S(=O)(=O)c2ccc(N=[N+]([O-])c3ccc(S(=O)(=O)c4ccc(N)cc4)cc3)cc2)cc1` registered a TGI greater than 100 µM.
The same measure, in the same setting: the value for `O/N=C1/C(=C/c2ccc(Cl)cc2)CCCC1C(NO)c1ccc(Cl)cc1` (stereo not drawn) was 29.9 µM.
On to `CCOC(=O)c1ccc2c(=O)n3c(C(=O)OCC)ccc3c(=O)n12`, for which the TGI is greater than 100 µM.
Regarding `COc1cc(C2c3cc4c(cc3OC(N3CCOCC3)C2C)OCO4)cc(OC)c1OC` (stereo not drawn), the TGI amounted to 89.6 µM.
`COc1ccc(Cn2c3c(c4c(O)cccc42)C(=O)c2ccccc2-3)cc1`: the GI50 is 3.58 µM and the TGI worked out at 16.8 µM.
With `O=C(Nn1c2c(sc1=NC1CC1)C(=O)c1ccccc1C2=O)c1cc2ccc1CCc1ccc(cc1)CC2`, the GI50 was 1.93 µM and the TGI turned out to be 5.13 µM.
Take `CC(=O)C1C(=O)C(=O)N(c2ccc([N+](=O)[O-])cc2Cl)C1=O` (stereo not drawn): the TGI is greater than 100 µM.
On the same count and under the same terms, with `C=CC[C@@]1(C#N)C[C@H](C[C@]2(C#N)C[C@H](CCl)OC(C)(C)O2)OC(C)(C)O1` the figure was greater than 100 µM.
Still for that read-out and setting: with `CC(C)(C)[Si](Nc1ccccc1)(c1ccccc1)c1ccccc1` the figure was 28.6 µM; with `O=C1O[C@H](COC(=O)c2ccccc2)[C@@H](OC(=O)c2ccccc2)C=C1OC(=O)c1ccccc1`, greater than 100 µM.
Same read-out and setting: the value for `COc1ccc2c(c1)-c1c(c3ccccc3n1CCN1CCOCC1)CC2` was greater than 100 µM; that for `C/C(=N\Nc1ncnc2ccccc12)c1ccccn1` was 3.17 µM.
On to `Cc1cc(Cl)ccc1Nc1nc(C(F)(F)F)ccc1C(=O)N/N=C/c1ccc(N(C)C)cc1`, for which the GI50 was 0.998 µM and the TGI was greater than 100 µM.
For `COc1ccc(Cn2cc3c(c2-c2ccccc2)CCc2cncnc2-3)cc1`, the GI50 was 14.6 µM and the TGI is 29.7 µM.
`CC(=N\N=C\c1ccccn1)/C(C)=N/N=C/c1ccccn1` displayed a TGI greater than 100 µM.
The same measure, in the same setting: the value for `CC(C)(CO)NC(=O)c1cccc(C(=O)NC(C)(C)CO)c1Br` was greater than 100 µM.
